Test results as given in PubChem BioAssay AID1347073 (National Center for Advancing Translational Sciences (NCATS), 2019).
The campaign covered roughly 45,000 compounds. About 200 (0.44%) were called active. Inconclusive results (about 7%) are left out. The call rests on the fitted dose curve; in most records, active means well fitted activation curve with a large enough effect; inconclusive means small, poorly fitted or top-dose-only effect; inactive means no such curve, though single readings can be large or run the other way. Some of the results follow.

Test: qHTS of TDP-43 Inhibitors: NCGC Sytravon Library Screen; further: 0% is about no effect; nearly all actives have a fitted effect of over 55% in size
Conditions: yeast TDP-43 toxicity rescue, BacTiter-Glo growth, 24 h; series mostly up to 46.1 µM; growth rescue (activation): at the top concentration
Summary of the method: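 TDP-43-expressing yeast, pregrown in raffinose, seeded at OD600 0.02 in galactose medium with compound for 24 hr at 30 deg C. Growth read by BacTiter-Glo luminescence, so rescue of toxicity appears as activation.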

SMILES | growth rescue (activation)
CCOC(=O)C1=C(C)NC(=O)CC1c1cc2c(cc1[N+](=O)[O-])OCO2 (configuration not stated) | inactive: 10.2%
COc1ccc(Cn2c(C)c(C)c(C#N)c2NC(=O)Nc2ccccc2)cc1 | inactive: 26.4%
Cc1cc2nnc(SCC(=O)Nc3cccc(S(=O)(=O)N4CCOCC4)c3)n2c2ccccc12 | inactive: -27.1%
CCOc1cc(N2CCOCC2)c(OCC)cc1NC(=O)c1ccc(-n2ccnc2)c([N+](=O)[O-])c1 | inactive: 21.2%
COc1ccc(NS(=O)(=O)c2ccc(N/N=C(\C)c3ccncc3)c([N+](=O)[O-])c2)cc1 | inactive: 2.28%
COC(=O)c1c(NC(=O)/C(C#N)=C/c2ccc(OC)cc2)sc2c1CCC2 | inactive: 0.527%
c1ccc2c(c1)CN1CCCC1=N2 | inactive: -15.8%
O=S(=O)(c1ccc(N2CCOCC2)c(Cl)c1)N1CCOCC1 | inactive: 18.1%
COc1ccc(S(=O)(=O)N2CCCC2)cc1NC(=O)c1ccccc1 | inactive: -6.84%
COc1ccc(-c2ccc(C(=O)NCc3ccccc3)c3occc23)c(C)c1 | inactive: 19.7%
COc1ccc(N=Cc2sc(O)c3ccccc23)cc1 | inactive: 16.9%
CCc1ccc(N2CC(C(=O)N3CCCCCC3)CC2=O)cc1 (configuration not stated) | inactive: 7.63%
COc1cccc(NC(=S)N(Cc2cccc(Br)c2)CC2CCC(C(=O)O)CC2)c1 (configuration not stated) | inactive: 10.1%
CS(=O)(=O)c1ccc(C(=O)OCC(=O)NC(=O)C2CCCCC2)cc1[N+](=O)[O-] | inactive: -9%
O=C(Cc1ccc(-n2c(=O)c3sccc3n(CC(=O)Nc3ccccc3)c2=O)cc1)NCc1ccco1 | inactive: -8.35%
COc1ccc(CNC(=O)CCC(=O)N2CCN(C(C)=O)CC2)cc1 | inactive: 8.37%
O=C(NCC1CCCCC1)c1ccc(=O)[nH]c1 | inactive: 11.7%
Cc1c(C)n(CC(O)CN(CCO)CCO)c2ccccc12 (configuration not stated) | inactive: 5.44%
CC(=O)Nc1cc[n+](CC(=O)c2ccc(Cl)cc2)cc1 | inactive: 7.45%
CC(NC(=O)COC(=O)CCC(=O)c1ccc(Cl)cc1)c1ccccc1 (configuration not stated) | inactive: 2.1%
COc1ccccc1N1CCN(C(=O)C2CC(=O)N(c3ccccc3)C2)CC1 (configuration not stated) | inactive: 13.3%
Cn1c(SCC(=O)NC2CCCCC2)nnc1-c1cccnc1 | inactive: -10.5%

SMILES | growth rescue (activation)
COc1ccc(CNC(=O)CN(C(=O)c2csnn2)c2cccc(C(C)=O)c2)cc1 | inactive: -8.43%
C=CCNC(=O)/C(C#N)=C/c1cc(Br)ccc1OC | inactive: 42.3%
O=c1[nH]c(SCc2ccc(F)cc2Cl)nc2ccccc12 | inactive: 13.4%
COc1ccc(C(N)=O)cc1NC(=O)c1cccc(F)c1 | inactive: 0.519%
Cc1onc(-c2ccccc2)c1C(=O)Nc1cccc(S(=O)(=O)N2CCCCC2)c1 | inactive: -1.25%
CN(c1ccc(OCC(=O)OCC(=O)Nc2c(F)c(F)c(F)c(F)c2F)cc1)S(=O)(=O)c1ccc(F)cc1 | inactive: 18.3%
CCC(=O)N1CCc2cc(-c3csc(NC(=O)c4ccco4)n3)ccc21 | inactive: 11.3%
Cn1c(SCC(=O)N/N=C/C=C\c2ccccc2[N+](=O)[O-])nc2ccccc21 | inactive: -8.94%
Cc1ccc(C)c(CNC(=O)Nc2ccccc2)c1 | inactive: 22.8%
Cc1ccc(OCC(=O)O/N=C(\N)c2ccncc2)cc1C | inactive: 24.8%
O=C(N/N=C/c1cccnc1)c1cccc(S(=O)(=O)N2CCCC2)c1 | inactive: 2.03%
O=C(NC(O)C(=O)c1ccccc1)c1ccccn1 (configuration not stated) | inactive: 19.8%
C[C@]12CC[C@H](O)CC1=CCC1C2CC[C@@]2(C)C1CC[C@@H]2NC(=O)CCC(=O)O (some centres not stated) | inactive: 11.8%
O=C(NN1C(=O)C2C(c3ccccc3)C=CC(c3ccccc3)C2C1=O)c1cccc(Br)c1 (configuration not stated) | inactive: 13.7%
O=S(=O)(c1cccs1)N1CN(C2CCCC2)c2nc3ccccc3nc21 | inactive: -6.25%
COc1cccc(-c2cc(C(=O)NCCCn3ccnc3)c3ccccc3n2)c1 | inactive: -5.05%
Nc1nc(-c2ccco2)cs1 | inactive: -6.26%
COCCNC(=O)c1cc2cc(Br)cc(Br)c2oc1=O | inactive: 7.17%
COc1ccc(NC(=O)CC2Oc3ccccc3NC2=O)c(OC)c1 (configuration not stated) | inactive: 7.63%
COc1cc(NC(=O)COc2ccccc2Cl)ccc1NC(=O)c1cccs1 | inactive: -6.01%
CCn1c(O)c(C=NCCN2CCOCC2)sc1=S | inactive: -18.8%
O=C(/C=C/c1ccco1)N/C(=C\c1ccco1)C(=O)NCCc1nc2ccccc2[nH]1 | inactive: 6.88%

SMILES | growth rescue (activation)
CCCSc1ncc(Cl)c(C(=O)Nc2c(C(=O)c3ccc(C)cc3)oc3ccccc23)n1 | inactive: 15.8%
COc1ccc(N(CC(=O)NCCC2=CCCCC2)S(=O)(=O)c2ccccc2F)cc1 | inactive: 27.4%
Cc1cc(=O)n2c3ccccc3n(CC(O)CN3CCN(CCO)CC3)c2c1C#N (configuration not stated) | inactive: 10.2%
Cc1nn2c(-c3cccc(NC(=O)c4ccc(Cl)cc4)c3)nnc2c2ccccc12 | inactive: -1.68%
O=C(/C=C/c1cccc(F)c1)OCC(=O)N1CCCC1 | inactive: -53.5%
NS(=O)(=O)c1ccc(CCNC(=O)CN2CCN(Cc3cccc4ccccc34)CC2)cc1 | inactive: 5.04%
Cc1ccc(NC(=S)N(CCCN2CCCC2)Cc2cccn2Cc2ccc(Cl)cc2)cc1Cl | inactive: -52.3%
CC(C)NC(=O)CN(Cc1ccc(F)cc1)C(=O)CCC(=O)Nc1nccs1 | inactive: -11.5%
O=P(O)(Cc1ccccc1)Cc1ccccc1 | inactive: -0.288%
CCCCOCc1cc(CN2CCN(c3cccc(Cl)c3)CC2)c(O)c2ncccc12 | inactive: -68.2%
Cc1ccc(CNC(=O)c2ccccc2NC(=O)CN2CCN(C)CC2)cc1 | inactive: 0.77%
CCOc1cc(N2CCOCC2)c(OCC)cc1NC(=O)CSc1ncccc1C(=O)O | inactive: 8.33%
CC(NC(=O)c1c(O)c2ccccc2n(C)c1=O)c1ccccc1 (configuration not stated) | inactive: -24%
O=C(Cc1cccc(C(F)(F)F)c1)N1CCCC1 | inactive: -18.8%
CN(C)c1ccc([C@@H]2[C@@H]([N+](=O)[O-])[C@H]3C=Cc4ccccc4N3[C@H]2C(=O)c2ccc(Cl)cc2)cc1 | inactive: 0.309%
NS(=O)(=O)c1ccc(CNC(=O)/C=C/c2cccc([N+](=O)[O-])c2)cc1 | inactive: 8.57%
Cc1cc(OC(C(=O)O)c2ccccc2)c2c(C)c(Cc3ccccc3)c(=O)oc2c1 (configuration not stated) | inactive: -2.9%
COCCNC(=O)C1CCCN(Cc2ccc(Cl)cc2)CC1 (configuration not stated) | inactive: 6.19%
COc1ccc(C(=O)Nc2ccc(N3CCN(C)CC3)cc2)cc1OC | inactive: 3.93%
COc1ccccc1N(C(=O)c1csnn1)C(C(=O)NC1CCCC1)c1ccccc1 (configuration not stated) | inactive: 9.08%
Clc1cccc(N2CCN(c3ncnc4nc[nH]c34)CC2)c1 | inactive: 1.39%
COc1ccc(S(=O)(=O)N2CCN(C(=O)c3cc4c(s3)CCC4)CC2)cc1 | inactive: 17.3%

SMILES | growth rescue (activation)
CCOC(=O)Cc1csc(NC(=O)CSc2nc(C)cc(C)n2)n1 | inactive: -0.3%
CCC(=C/c1sc2ccc3ccccc3c2[n+]1C)/C=C1\Sc2ccc3ccccc3c2N1C | inactive: -95.9%
COc1ccc(CCNC(=O)C2CCN(Cc3nc(-c4ccc(Cl)cc4)oc3C)CC2)cc1OC | inactive: -18.8%
O=c1cc(CN2CCN(Cc3ccccc3)CC2)c2ccc(O)cc2o1 | inactive: 13.9%
CCNC(=O)C1(C)CCCN(C(=O)c2ccnc(Cl)c2)C1 (configuration not stated) | inactive: 2.38%
O=C(Cc1ccc(Cl)cc1Cl)NC1CCCCCC1 | inactive: -33.1%
O=Cc1cn(CCC(=O)O)nc1-c1cccc(Br)c1 | inactive: -6.57%
COc1ccc(CNC(=O)Cn2c(=O)oc3cc(S(=O)(=O)N4CCCC4)ccc32)cc1 | inactive: 1.54%
CC(=O)c1cnc2cc(-c3cccc(Br)c3)nn2c1C | inactive: 15.1%
Cc1nnc(SCC(=O)N2CCN(S(=O)(=O)c3ccc(Cl)cc3)CC2)[nH]c1=O | inactive: 10.5%
Cn1c(N)c(C(=O)COC(=O)Cc2ccc(Cl)cc2Cl)c(=O)n(C)c1=O | inactive: 24.8%
O=C(NCCCN1CCOCC1)c1ccc(N2CCCC2)c([N+](=O)[O-])c1 | inactive: 5.2%
COc1cccc(Nc2nc(-c3ccccc3)c3cc(C)ccc3n2)c1 | inactive: 25.6%
CCOC(=O)C1=C(NC(=S)NC(=O)c2ccccc2)c2ccccc2CC1(C)C | inactive: -14.4%
NNC(=O)CN(CCc1ccccc1)S(=O)(=O)c1ccc(Cl)cc1 | inactive: 3.45%
CCCc1cc(C(=O)Nc2ccc(CC)cc2)no1 | inactive: 17%
N/C(=N\OC(=O)c1cccs1)c1cccnc1 | inactive: 22.2%
CCOc1cc(CNCc2ccccc2)ccc1OCc1ccc(Cl)cc1 | inactive: 9.75%
CC(OC(=O)CNC(=O)c1ccco1)C(=O)N(C)c1ccccc1 (configuration not stated) | inactive: 1.13%
Cc1ccc(OCCN2CCC2(C)C(=O)NCc2cccc3ccccc23)cc1 (configuration not stated) | inactive: 8.21%
COc1cc(OC)cc(C(=O)N[C@H](C(=O)OCC(=O)Nc2ccc3c(c2)OCO3)C(C)C)c1 | inactive: -12.4%
O=C(O)c1ccc(/C=N/Nc2ncc(C(F)(F)F)cc2Cl)cc1 | inactive: 16.7%

SMILES | growth rescue (activation)
CCSC(=Nc1ccccc1)Nc1ccccc1 | inactive: -2.81%
CSc1ccc(C(=O)C2CCCN(C(=O)CCn3cncn3)C2)cc1 (configuration not stated) | inactive: -3.32%
CCN(CC)S(=O)(=O)c1ccc(/C=C/C(=O)NC2CCCCC2)cc1 | inactive: 17.4%
Cn1c(=O)c2c(nc(N/N=C/c3cccs3)n2C)n(C)c1=O | inactive: -5.81%
COc1ccc(NS(=O)(=O)c2cc(NC(=O)c3cncc(Br)c3)ccc2OC)cc1 | inactive: 34.2%
CCOC(=O)CNC(=O)c1ccc(Cl)s1 | inactive: 14.6%
O=C(CNC1CCCCC1)NCC1(c2ccccc2)CCCC1 | inactive: 5.32%
COc1ccc(C)cc1NS(=O)(=O)c1cccc2nonc12 | inactive: 29.3%
COc1ccc(-c2ccc(=O)n(CC(=O)NCc3ccco3)n2)cc1 | inactive: -4.17%
CCOc1ccc(CN2CCN(Cc3ccon3)CC2CCO)cc1 (configuration not stated) | inactive: 5.2%
O=C(C1CCC(CNS(=O)(=O)c2cccs2)CC1)N1CCN(c2ccc(F)cc2)CC1 (configuration not stated) | inactive: -6.05%
CCOC(=O)c1c(NC(=S)NC(C)=O)sc(C)c1C | inactive: 1.46%
Cc1ccc(S(=O)(=O)N2CCCCC2)cc1C(=O)NCc1ccccn1 | inactive: 14%
COc1ccc(CCC(=O)Nc2sccc2C#N)cc1 | inactive: 4.07%
Cc1ccc2nc(Cl)c(/C=N/NC(=O)c3ccccc3O)cc2c1 | inactive: 2.45%
O=C(Nc1c2c(nn1-c1ccc(F)cc1)CS(=O)C2)C12CC3CC(CC(C3)C1)C2 (configuration not stated) | inactive: -2.07%
O=C(Nc1nnc(-c2ccc(F)cc2)s1)c1ccco1 | inactive: 9.28%
O=C(NC1CCCCC1)C1CCN(C(=O)c2ccc(Cl)cc2)CC1 | inactive: 2.61%
CC(=O)Nc1cccc(NC(C)=C(C#N)C#N)c1 | inactive: 16.5%
